Reference: patent US20210269542A1 (POTENZA THERAPEUTICS, published 2021)
One block for each binder: values may come before it.

Experiments:
[1] = biological target: T1, human GITR expressed on cells (human, UniProt Q9Y5U5 26-241); experiment: cell-based or functional assay
T1 sequence: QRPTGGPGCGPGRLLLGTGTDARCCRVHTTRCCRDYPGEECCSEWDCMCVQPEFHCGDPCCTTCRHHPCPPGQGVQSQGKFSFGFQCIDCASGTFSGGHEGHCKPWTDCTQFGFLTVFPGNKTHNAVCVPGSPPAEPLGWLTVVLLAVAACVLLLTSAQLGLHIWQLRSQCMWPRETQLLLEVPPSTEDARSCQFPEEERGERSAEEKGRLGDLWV

human GITR-Fc = biological target: T2, human GITR-Fc (human, UniProt Q9Y5U5 26-162); experiment: BLI Octet RED384, ABP on AHQ sensor, 100 nM antigen, single concentration;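 further: association and dissociation each tracked over 180 s, with dissociation run in antigen-free buffer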
T2 construct: also called recombinant hGITR; wild type human GITR-Fc
T2 sequence: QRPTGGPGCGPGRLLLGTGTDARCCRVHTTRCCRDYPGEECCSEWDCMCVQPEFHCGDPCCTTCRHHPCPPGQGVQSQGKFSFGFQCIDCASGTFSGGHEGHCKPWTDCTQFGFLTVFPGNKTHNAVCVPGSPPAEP

cyno GITR-Fc = biological target: T3, cyno GITR-Fc (cynomolgus monkey); experiment: as above
T3 construct: also called cGITR; cynomolgus GITR
T3 chain: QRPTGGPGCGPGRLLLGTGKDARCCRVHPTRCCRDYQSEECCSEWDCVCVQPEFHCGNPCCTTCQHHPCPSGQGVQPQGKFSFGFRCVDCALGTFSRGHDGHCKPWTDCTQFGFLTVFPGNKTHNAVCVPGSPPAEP

Average EC50 in Human HT1080 (IL-8 induction) [1]: 0.46 nM | Kd (human GITR-Fc): 4.5 nM | Kd (cyno GITR-Fc): 11 nM
B1: ABP25 (antibody, human IgG4 S228P, kappa)
heavy: QVQLVQSGAEVKKPGSSVKVSCKASGGTFSSYYISWVRQAPGQGLEWMGGIIPVPGTANYAQKFQGRVTITADESTSTAYMELSSLRSEDTAVYYCARAGGGYARGDHYYGMDVWGQGTTVTVSSASTKGPSVFPLAPCSRSTSESTAALGCLVKDYFPEPVTVSWNSGALTSGVHTFPAVLQSSGLYSLSSVVTVPSSSLGTKTYTCNVDHKPSNTKVDKRV[human IgG4 Fc with S228P (EU numbers) left out]GGGGSGGGGSGGGGSQVQLVQSGAEVKKPGSSVKVSCKASGGTFSSYYISWVRQAPGQGLEWMGGIIPVPGTANYAQKFQGRVTITADESTSTAYMELSSLRSEDTAVYYCARAGGGYARGDHYYGMDVWGQGTTVTVSSASTKGPSVFPLAPSSKSTSGGTAALGCLVKDYFPEPVTVSWNSGALTSGVHTFPAVLQSSGLYSLSSVVTVPSSSLGTQTYICNVNHKPSNTKVDKRVEPKSC
light: not shown

Average EC50 in Human HT1080 (IL-8 induction) [1]: 0.25 nM | Kd (human GITR-Fc): 5.2 nM | Kd (cyno GITR-Fc): 12.6 nM
B2: ABP19 (antibody, human IgG4 S228P, kappa)
heavy: QVQLVQSGAEVKKPGSSVKVSCKASGGTFSSYYISWVRQAPGQGLEWMGGIIPVPGTANYAQKFQGRVTITADESTSTAYMELSSLRSEDTAVYYCARAGGGYARGDHYYGMDVWGQGTTVTVSSASTKGPSVFPLAPSSKSTSGGTAALGCLVKDYFPEPVTVSWNSGALTSGVHTFPAVLQSSGLYSLSSVVTVPSSSLGTQTYICNVNHKPSNTKVDKRVEPKSCGGGGSQVQLVQSGAEVKKPGSSVKVSCKASGGTFSSYYISWVRQAPGQGLEWMGGIIPVPGTANYAQKFQGRVTITADESTSTAYMELSSLRSEDTAVYYCARAGGGYARGDHYYGMDVWGQGTTVTVSSASTKGPSVFPLAPCSRSTSESTAALGCLVKDYFPEPVTVSWNSGALTSGVHTFPAVLQSSGLYSLSSVVTVPSSSLGTKTYTCNVDHKPSNTKVDKRV[human IgG4 Fc with S228P (EU numbers) left out]
light: not shown
notes: TM format, N-terminal Fab: VH + IgG1 CH1 + GGGGS + VH + IgG4 S228P
